The supplement of paper PMC11876631
± gives the standard deviation of the averaged measurements. Laboratory Escherichia coli strains with one amino-acid change in an essential protein, pooled on minimal glucose agar with carbenicillin or gentamicin at twice the control MIC (plus kanamycin and chloramphenicol for the plasmids), 48 h. Fold change of barcode share against drug-free plates; higher = less susceptible. Active = above 20 in both replicates (the paper's putatively resistant). '<' = one read or none on drug, '>' = one read or none on a drug-free plate. Shares are relative, so most strains fall below 1 when a few take over. Listed are strains with at least 15 reads on both drug-free plates, and hits; most hits rest on fewer reference reads. Replicate rank correlation about 0.5. Edits are read from barcodes.

B1: pheT; numbered along this chain (parent)
chain: MKFSELWLREWVNPAIDSDALANQITMAGLEVDGVEPVAGSFHGVVVGEVVECAQHPNADKLRVTKVNVGGDRLLDIVCGAPNCRQGLRVAVATIGAVLPGDFKIKAAKLRGEPSEGMLCSFSELGISDDHSGIIELPADAPIGTDIREYLKLDDNTIEISVTPNRADCLGIIGVARDVAVLNQLPLVQPEIVPVGATIDDTLPITVEAPEACPRYLGRVVKGINVKAPTPLWMKEKLRRCGIRSIDAVVDVTNYVLLELGQPMHAFDKDRIEGGIVVRMAKEGETLVLLDGTEAKLNADTLVIADHNKALAMGGIFGGEHSGVNDETQNVLLECAFFSPLSITGRARRHGLHTDASHRYERGVDPALQHKAMERATRLLIDICGGEAGPVIDITNEATLPKRATITLRRSKLDRLIGHHIADEQVTDILRRLGCEVTEGKDEWQAVAPSWRFDMEIEEDLVEEVARVYGYNNIPDEPVQASLIMGTHREADLSLKRVKTLLNDKGYQEVITYSFVDPKVQQMIHPGVEALLLPSPISVEMSAMRLSLWTGLLATVVYNQNRQQNRVRIFESGLRFVPDTQAPLGIRQDLMLAGVICGNRYEEHWNLAKETVDFYDLKGDLESVLDLTGKLNEVEFRAEANPALHPGQSAAIYLKGERIGFVGVVHPELERKLDLNGRTLVFELEWNKLADRVVPQAREISRFPANRRDIAVVVAENVPAADILSECKKVGVNQVVGVNLFDVYRGKGVAEGYKSLAISLILQDTSRTLEEEEIAATVAKCVEALKERFQASLRD
B2: bioH; numbered along this chain (parent)
chain: MNNIWWQTKGQGNVHLVLLHGWGLNAEVWRCIDEELSSHFTLHLVDLPGFGRSRGFGALSLADMAEAVLQQAPDKAIWLGWSLGGLVASQIALTHPERVQALVTVASSPCFSARDEWPGIKPDVLAGFQQQLSDDFQRTVERFLALQTMGTETARQDARALKKTVLALPMPEVDVLNGGLEILKTVDLRQPLQNVSMPFLRLYGYLDGLVPRKVVPMLDKLWPHSESYIFAKAAHAPFISHPAEFCHLLVALKQRV
B3: purM; numbered along this chain (parent)
chain: MTDKTSLSYKDAGVDIDAGNALVGRIKGVVKKTRRPEVMGGLGGFGALCALPQKYREPVLVSGTDGVGTKLRLAMDLKRHDTIGIDLVAMCVNDLVVQGAEPLFFLDYYATGKLDVDTASAVISGIAEGCLQSGCSLVGGETAEMPGMYHGEDYDVAGFCVGVVEKSEIIDGSKVSDGDVLIALGSSGPHSNGYSLVRKILEVSGCDPQTTELDGKPLADHLLAPTRIYVKSVLELIEKVDVHAIAHLTGGGFWENIPRVLPDNTQAVIDESSWQWPEVFNWLQTAGNVEHHEMYRTFNCGVGMIIALPAPEVDKALALLNANGENAWKIGIIKASDSEQRVVIE
B4: mrdA; numbered along this chain (parent)
chain: MKLQNSFRDYTAESALFVRRALVAFLGILLLTGVLIANLYNLQIVRFTDYQTRSNENRIKLVPIAPSRGIIYDRNGIPLALNRTIYQIEMMPEKVDNVQQTLDALRSVVDLTDDDIAAFRKERARSHRFTSIPVKTNLTEVQVARFAVNQYRFPGVEVKGYKRRYYPYGSALTHVIGYVSKINDKDVERLNNDGKLANYAATHDIGKLGIERYYEDVLHGQTGYEEVEVNNRGRVIRQLKEVPPQAGHDIYLTLDLKLQQYIETLLAGSRAAVVVTDPRTGGVLALVSTPSYDPNLFVDGISSKDYSALLNDPNTPLVNRATQGVYPPASTVKPYVAVSALSAGVITRNTTLFDPGWWQLPGSEKRYRDWKKWGHGRLNVTRSLEESADTFFYQVAYDMGIDRLSEWMGKFGYGHYTGIDLAEERSGNMPTREWKQKRFKKPWYQGDTIPVGIGQGYWTATPIQMSKALMILINDGIVKVPHLLMSTAEDGKQVPWVQPHEPPVGDIHSGYWELAKDGMYGVANRPNGTAHKYFASAPYKIAAKSGTAQVFGLKANETYNAHKIAERLRDHKLMTAFAPYNNPQVAVAMILENGGAGPAVGTLMRQILDHIMLGDNNTDLPAENPAVAAAEDH

Variants of: B1
Assay: barcode share on antibiotic plates over drug-free plates; higher = less susceptible
Settings: with Escherichia coli (laboratory strain); antibiotic: carbenicillin; 2× MIC (3.1 µg/mL)
Procedure: (§1)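 A pool of E. coli strains, each edited to carry one amino-acid change in an essential protein, was grown for 48 h on minimal glucose agar with or without antibiotic; strain barcodes were sequenced; mean of two replicates.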

Row | Variant | fold change of barcode share
1 | V278A | 0.399 ± 0.34
2 | V278D | 0.483 ± 0.26
3 | V278P | 0.253 ± 0.023
4 | V278Q | 0.42 ± 0.15
5 | V278W | 0.383 ± 0.13
6 | V712A | 0.369 ± 0.16
7 | V712P | 0.441 ± 0.0095
8 | V712Q | 0.332 ± 0.13
9 | V712W | 0.718 ± 0.066
10 | V713A | 0.319 ± 0.16
11 | V713Q | 0.229 ± 0.0062
12 | V714A | 0.283 ± 0.05
13 | V714P | 0.267 ± 0.074
14 | V714Q | 0.151 ± 0.079

Same assay, conditions: with Escherichia coli (laboratory strain); antibiotic: gentamicin; 2× MIC (MIC 0.45 µg/mL)

Row | Variant | fold change of barcode share
15 | V278A | 0.00868 ± 0.0034
16 | V278D | 0.0057 ± 0.0022
17 | V278P | 0.00466 ± 0.001
18 | V278Q | 0.00612 ± 0.0029
19 | V278W | 0.00718 ± 0.004
20 | V712A | < 0.00772
21 | V712P | < 0.00404
22 | V712Q | 0.0105 ± 0.0098
23 | V712W | < 0.00782
24 | V713A | < 0.00787
25 | V713Q | < 0.00535
26 | V714A | < 0.00929
27 | V221A | 0.00774 ± 0.0022

Variants of: B2
Assay: as above
Settings: with Escherichia coli (laboratory strain); antibiotic: carbenicillin; 2× MIC (3.1 µg/mL)
Procedure: as §1

Row | Variant | fold change of barcode share
28 | V103W | 0.651 ± 0.26
29 | L79W | 0.613 ± 0.035
30 | L200Q | 0.384 ± 0.064
31 | V103A | 0.432 ± 0.12
32 | V103P | 0.386 ± 0.11
33 | L79Q | 0.843 ± 0.32
34 | L249P | 1.11 ± 0.32
35 | L79A | 0.533 ± 0.12
36 | L200P | 0.399 ± 0.057
37 | L200A | 0.483 ± 0.081
38 | L79D | 0.625 ± 0.057
39 | L200D | 0.4127 ± 0.0024
40 | L249D | 0.239 ± 0.023
41 | V103Q | 0.418 ± 0.12
42 | L200W | 0.387 ± 0.021
43 | V103D | 0.78 ± 0.13
44 | L249A | 1.09 ± 0.57
45 | W78Q | 0.749 ± 0.1
46 | L249W | 0.284 ± 0.066
47 | L79P | 0.67 ± 0.14
48 | L249Q | 0.378 ± 0.067

Same assay, conditions: with Escherichia coli (laboratory strain); antibiotic: gentamicin; 2× MIC (MIC 0.45 µg/mL)

Row | Variant | fold change of barcode share
49 | V103W | 0.00581 ± 0.0016
50 | L79W | 0.00996 ± 0.00077
51 | L200Q | 0.0203 ± 0.015
52 | V103A | 0.00909 ± 0.0014
53 | V103P | 0.00949 ± 0.0028
54 | L79Q | 0.0162 ± 0.01
55 | L249P | 0.00622 ± 0.00044
56 | L79A | 0.00884 ± 0.0015
57 | L200P | 0.00775 ± 0.0039
58 | L200A | 0.0176 ± 0.015
59 | L79D | 0.00824 ± 0.00092
60 | L200D | 0.0143 ± 0.013
61 | L249D | 0.00812 ± 0.00072
62 | V103Q | 0.0133 ± 0.0066
63 | L200W | 0.0174 ± 0.01
64 | V103D | 0.00723 ± 0.0018
65 | L249A | 0.00843 ± 0.0045
66 | W78Q | 0.0122 ± 0.0043
67 | L249W | 0.00768 ± 0.0034
68 | L79P | 0.00591 ± 0.0051
69 | L249Q | 0.00508 ± 0.0018
70 | W78P | 0.00796 ± 0.0054
71 | W78A | 0.0128 ± 0.0036

Variants of: B3
Assay: as above
Settings: with Escherichia coli (laboratory strain); antibiotic: carbenicillin; 2× MIC (3.1 µg/mL)
Procedure: as §1

Row | Variant | fold change of barcode share
72 | F105A | 79.5 [active]
73 | F105D | > 53.2 [active]
74 | F105Q | > 110 [active]
75 | F105W | 1.68 ± 0.4
76 | I123A | 0.761 ± 0.083
77 | I123D | > 71.3 [active]
78 | I123Q | > 38.8 [active]
79 | I123W | > 32.6 [active]
80 | I126A | 1 ± 0.18
81 | I126D | > 31.3 [active]
82 | I126P | > 39.9 [active]
83 | I126Q | 1.45 ± 0.28
84 | I126W | > 27.3 [active]
85 | M304A | 0.432 ± 0.2
86 | M304Q | 0.304 ± 0.022
87 | I305A | 0.373 ± 0.064
88 | I305P | > 22.9 [active]
89 | I305W | 38.9 [active]
90 | I306Q | 60 [active]
91 | I306W | 44.8 [active]
92 | L320A | 0.23 ± 0.1
93 | L320W | > 52 [active]

Same assay, conditions: with Escherichia coli (laboratory strain); antibiotic: gentamicin; 2× MIC (MIC 0.45 µg/mL)

Row | Variant | fold change of barcode share
94 | I123A | < 0.00816
95 | I126A | 0.00894 ± 0.0034
96 | I126Q | 0.0563 ± 0.066
97 | M304A | < 0.0128
98 | M304Q | < 0.0149
99 | I305A | 0.0121 ± 0.012
100 | L320A | < 0.00776
101 | M304W | 0.025 ± 0.009
102 | I306A | < 0.0128

Variants of: B4
Assay: as above
Settings: with Escherichia coli (laboratory strain); antibiotic: carbenicillin; 2× MIC (3.1 µg/mL)
Procedure: as §1

Row | Variant | fold change of barcode share
103 | I176A | 0.146 ± 0.051
104 | I176D | 0.159 ± 0.055

Same assay, conditions: with Escherichia coli (laboratory strain); antibiotic: gentamicin; 2× MIC (MIC 0.45 µg/mL)

Row | Variant | fold change of barcode share
105 | I176A | < 0.00816
106 | I176D | < 0.0173
